Among all 48,000 compounds or so, about 120 (0.25%) were called active. Another 4% or so got no clear call; they are omitted. Calls follow the shape of the dose curve; as a rule, active = well fitted activation curve with a large enough effect; inconclusive = small, poorly fitted or top-dose-only effect, or another doubt; inactive = no such curve, though single readings can be large or run the other way. Some of the results follow.

This assay in a line: Primary qHTS for Identification of Small Molecule Activators of Huntingtin-Antisense Promoter Activity. Also: nearly all actives have a fitted effect of over 55% in size. The following applies: HEK293 HTT-AS promoter firefly luciferase reporter, 24 h; series mostly up to 57.5 µM; activity change, positive = activation: at the top concentration. The method in brief:
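HEK293 cells carrying firefly luciferase reporters were seeded at 2,500 per well in Opti-MEM and cultured for 24 h. They were then treated with compounds at up to 57.5 uM final for 24 h at 37 degrees C before Dual-Glo luminescence readout.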
For orientation: qHTS replaces the single test concentration by a dilution series.
As to `Cc1cccc(CSCc2ccc(C(=O)NCCc3ccccc3)o2)c1`, the “activity change, positive = activation” value was inactive: -6.27%.

For `COc1ccccc1CCNC(=O)Cc1c(C)c2cc3c(C)coc3cc2oc1=O`, the “activity change, positive = activation” value is inactive: 0.786%. `O=C(c1cc2ccccc2oc1=O)N1CCN(c2ccc(F)cc2)CC1`: the “activity change, positive = activation” value is inactive: -5.82%.

`Cc1cc(C)c2c(CC(=O)Nc3ccc(S(=O)(=O)N4CCCCC4)cc3)coc2c1`: the “activity change, positive = activation” value is inactive: -15.6%.

Consider `CCN(CC)CCN(C(=O)c1ccco1)c1nc2cc(C)cc(C)c2s1`, for which the “activity change, positive = activation” value is inactive: -13.7%. The figure for `CCOc1cc(-c2ccc(OC(=O)c3ccc(C)cc3)c(OC)c2)cc(=O)c2c(C)oc(C)c12` is inactive: -37.1%. The figure for `Nc1c(-c2nc(-c3ccccc3)no2)nnn1CC(=O)Nc1cccc(F)c1` is inactive: 7.75%; for `CC(=O)c1ccc(NC(=O)CN(C)S(=O)(=O)c2cc3c(cc2Cl)NC(=O)CO3)cc1` it is inactive: -18.4%; for `CCCN(CCC)S(=O)(=O)c1ccc(C(=O)Nc2cccc(-c3nc4ccccc4[nH]3)c2)cc1` it is inactive: -47.9%. The figure for `CCOC(=O)c1ccc(Nc2c(-c3cccc(O)c3)nc3nc[nH]n23)cc1` is inactive: -49.9%.

Regarding `N#Cc1c(-n2ncnc2-c2ccccc2C(F)(F)F)sc2c1CCCCC2`, the “activity change, positive = activation” value is inactive: -53%.

In the case of `Cc1ccc(NCc2cccn2-c2nnc(N3CCC(C(=O)NCCC(C)C)CC3)s2)cc1`, the “activity change, positive = activation” value was inactive: -45.3%. In the case of `CCc1ccc(NC(=O)Nc2nnc(N(C)C3CCCCC3)s2)cc1` it was inactive: -1.8%; in that of `O=C(Nc1cccc(C(F)(F)F)c1)c1ccc2snnc2c1`, inactive: -13.8%.

Regarding `CC(=O)c1ccc(NC(=O)Cn2c(=O)nc(-c3ccccc3)c3cc(Cl)ccc32)cc1`, the “activity change, positive = activation” value was inactive: -4.67%. In the case of `Cc1cccc(N2CCN(C(=O)C3CCN(c4ncnc5c4nc4n5CCCCC4)CC3)CC2)c1C` it was inactive: -34.4%; in that of `CCOC(=O)C1CCCN(c2ncnc3c2nnn3C)C1` (centres undefined), inactive: -8.44%; in that of `COc1cccc(NC(=O)c2oc3ccccc3c2NC(=O)c2cc3ccccc3o2)c1`, inactive: -9.99%. Regarding `COCCn1c(SCC(=O)c2c[nH]c3ccccc23)nc2cc(C(=O)NC(C)C)ccc2c1=O`, the “activity change, positive = activation” value is inactive: -19.6%. As to `COCCCNC(=O)c1ccc(C)c(-n2c(C)nc3cccnc32)c1`, the “activity change, positive = activation” value was inactive: -1.22%. In the case of `Cc1nc2ccn(Cc3cccnc3)c(=O)c2cc1C(=O)Nc1ccc(F)cc1F` it was inactive: -0.41%; in that of `O=S(=O)(Nc1ccc(F)cc1F)c1ccc(-n2cccn2)cc1`, inactive: -31.1%. In the case of `CCOc1ccc(-c2nnc(SCC(=O)c3ccc(Br)cc3)n2-c2ccccc2)cc1` it was inactive: 0.771%. In the case of `CCOc1ccc(CCNC(=O)c2cc3c(s2)-c2c(C)cccc2OC3)cc1` it was inactive: -8.48%; in that of `O=C(CN1C(=O)CCc2cc(S(=O)(=O)N3CCOCC3)ccc21)NCc1ccc(Cl)cc1`, inactive: -17.4%; in that of `COc1cc(NC(=O)NCCN2CCN(c3ccccc3)CC2)cc(OC)c1OC`, inactive: -7.08%. As to `COc1ccc(C(=O)NCCn2cc(SC(C)c3ccccc3)c3ccccc32)cc1OC` (centres undefined), the “activity change, positive = activation” value is inactive: -51.4%. The figure for `Cc1ccc(N(C)C(=O)CCS(=O)(=O)c2cc3c(cc2Cl)NC(=O)CO3)cc1` is inactive: -12.2%; for `Cc1cccc(NC(=O)CSc2nc3c(sc4ccccc43)c(=O)n2CCCC(=O)NC2CCCC2)c1` it is inactive: -2.01%. In the case of `Cc1cccc(C(=O)Nc2ccc(S(=O)(=O)N(Cc3ccccc3)c3ccccc3)cc2)c1`, the activity change, positive = activation was inactive: 20.4% [at 11.5 µM, percent change from vehicle, -100% = no light]. The figure for `C[C@@H]1CC=CC=CC=CC=C[C@@H](O[C@@H]2O[C@H](C)[C@@H](O)[C@H](N)[C@H]2O)C[C@@H]2O[C@](O)(C[C@@H](O)C[C@@H]3O[C@@H]3C=CC(=O)O1)C[C@H](O)[C@@H]2C(=O)O` is inactive: -93.7%; for `Cc1ccc(C2=NC(c3ccccc3)=Nc3ccc(Cl)cc3N2)cc1` it is inactive: 26.6%.

As for `O=C1[C@H](Cc2ccc(O)cc2)N2C(=O)CCN(C(=O)NCc3ccccc3)[C@H]2CN1Cc1cccc2ccccc12`, the “activity change, positive = activation” value is inactive: -40.4%. For `COC(=O)c1cc2oc3ccccc3c2n1Cc1c(C)cc(C)cc1C`, the “activity change, positive = activation” value was inactive: -13.4%. The figure for `COCCCNC(=O)CSc1nc(-c2ccc(OC)c(OC)c2)[nH]c1-c1ccc(F)cc1` is inactive: -15.5%; for `Cc1cc(C)c2c(=O)cc(C(=O)NCc3ccc(S(N)(=O)=O)cc3)oc2c1` it is inactive: -0.251%; for `CCc1ccc(NC(=O)CCc2nnc3n(C)c(=O)c4sccc4n23)cc1` it is inactive: -10%. The figure for `Cc1cc(C)cc(NC(=O)Cn2c(=O)n(Cc3ccco3)c(=O)c3oc4ccccc4c32)c1` is inactive: -20.7%.

Take `Cc1nn2c(=O)cc(COC(=O)COc3ccc(F)cc3)nc2s1`: the “activity change, positive = activation” value was inactive: 2.55%. In the case of `COc1cc2ccccc2cc1C(=O)Nc1cccc(-c2nc3cc(C)ccc3o2)c1C` it was inactive: -9.69%. In the case of `Cc1cccc(NC(=O)C2CCCN(S(=O)(=O)c3ccc(Br)s3)C2)c1` (centres undefined) it was inactive: -10.9%; in that of `Cc1nc2cccnc2n1-c1cccc(C(=O)NCCc2ccc(S(N)(=O)=O)cc2)c1`, inactive: -4.44%. The figure for `Cc1ccc(NC(=O)CSc2nnc(-c3ccc(Br)cc3)o2)c(C)c1` is inactive: -4.27%. Turning to `Cc1ccc(OCC(=O)Nc2ccc3nc(SCCOc4ccccc4)sc3c2)cc1`, the “activity change, positive = activation” value was inactive: -15.7%.

Turning to `CCOC(=O)Cn1c(=O)oc2cc(S(=O)(=O)N3CCC(C(=O)OCC)CC3)ccc21`, the “activity change, positive = activation” value was inactive: -21.4%.

Regarding `COc1ccc(NC(=O)Cn2nnc3sc4c(c3c2=O)CCCC4)cc1`, the “activity change, positive = activation” value was inactive: -18.4%. The figure for `Cc1ccc(NC(=O)CN2C(=O)COc3ccc(S(=O)(=O)Nc4ccccc4)cc32)c(C)c1` is inactive: -8.76%; for `COc1ccc(CNC(=O)c2ccc3nc(C(C)C)oc3c2)cc1OC` it is inactive: -34.7%; for `Cc1cc(C)c(NC(=O)CSc2nc3ccncc3[nH]2)c(C)c1` it is inactive: -23.5%. In the case of `CCOC(=O)c1oc2ccc(S(=O)(=O)n3nc(-c4ccc(C)cc4)cc3N)cc2c1C` it was inactive: -14.6%. In the case of `COc1ccc(NC(=O)C2CCN(S(=O)(=O)c3cccc(-c4noc(C)n4)c3)CC2)cc1OC` it was inactive: -26.9%. `CCOCCn1ccc2c(OCC(=O)Nc3ccc(C(N)=O)cc3)cccc2c1=O`: the “activity change, positive = activation” value was inactive: -24.8%.

For the compound `COc1cccc2sc(N(Cc3cccnc3)C(=O)c3ccc4c(c3)OCCO4)nc12`, the “activity change, positive = activation” value was inactive: -14%. The figure for `COc1ccc(C2NC(=O)N(C)C3=C2C(=O)N(c2ccc(Br)cc2)C3)cc1` (centres undefined) is inactive: -18.8%; for `CCCc1nn2c(=O)cc(COC(=O)c3ccc(NC(=O)COc4ccc(F)cc4)cc3)nc2s1` it is inactive: -14.4%.

For the compound `CN(C)c1ccc(CNC(=O)C2CCN(c3nc4ccccc4[nH]3)CC2)cc1`, the “activity change, positive = activation” value is inactive: -17.7%. On to `Cc1cc(S(=O)(=O)N2CCN(Cc3noc(CCC(=O)N4CCCCC4)n3)CC2)ccc1F`, for which the “activity change, positive = activation” value was inactive: -12.8%. In the case of `COC(=O)c1cc2occc2n1Cc1nc(-c2ccccc2)oc1C` it was inactive: -5.58%. In the case of `N#Cc1ccc(-c2cccs2)nc1SCC(=O)Nc1cccc(C(F)(F)F)c1` it was inactive: 3.24%.

The values above are taken from PubChem BioAssay AID1508624 (National Center for Advancing Translational Sciences (NCATS), 2021).
